The record followed here is the supplement of paper PMC4604168 (melanoma cell lines).

The list shows a part of the results. Single values are uncertain, as repeats are few or missing.
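Also: cell number obtained by counting DAPI-stained nuclei in high-throughput microscope images with image analysis software, screen run in 1,536-well plates.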

This assay deals with WM1745. Nature of the assay: cell count relative to DMSO control; melanoma cells; higher = more viable cells. To be noted: library dose: low library concentration; 72 h.
On to `Nc1nc(F)nc2c1ncn2[C@@H]1O[C@H](CO)[C@@H](O)[C@@H]1O` [fludarabine] + O=C(O)C(=O)Nc1sc2c(c1C(=O)O)CCNC2 [TCS401] (first compound 0.2 µM, partner dose 1.66667 µM), for which the cell count was found to be 93.5%. As to `Nc1ncn([C@H]2C[C@H](O)[C@@H](CO)O2)c(=O)n1` [decitabine] + COc1cc(Nc2ncc(F)c(Nc3ccc4c(n3)NC(=O)C(C)(C)O4)n2)cc(OC)c1OC [Tamatinib] (first compound 0.1 µM, partner dose 0.4 µM), the cell count was found to be 71%. In the case of `Nc1nc(F)nc2c1ncn2[C@@H]1O[C@H](CO)[C@@H](O)[C@@H]1O` [fludarabine] + CCc1ccc(CCOc2ccc(CC3SC(=O)NC3=O)cc2)nc1 [pioglitazone] (first compound 0.2 µM, partner dose 2 µM) it was 97.1%. On to `Nc1ccn([C@@H]2O[C@H](CO)[C@@H](O)C2(F)F)c(=O)n1` [gemcitabine] + O=C(Nc1cccc(Cl)c1)Nc1ncc(CCNc2ncnc3ccsc23)s1 [SNS314] (first compound 0.0004 µM, partner dose 0.0008 µM), for which the cell count came out at 53%. `Nc1ccn([C@@H]2O[C@H](CO)[C@@H](O)C2(F)F)c(=O)n1` [gemcitabine] + CN(C)S(=O)(=O)c1ccc2c(c1)/C(=C/c1cc3c([nH]1)CCCC3)C(=O)N2 [SU6656] (first compound 0.0004 µM, partner dose 0.4 µM): the cell count amounted to 73.8%. Then `Nc1ncn([C@H]2C[C@H](O)[C@@H](CO)O2)c(=O)n1` [decitabine] + COc1cc(N2CCC(N3CCN(C)CC3)CC2)ccc1Nc1ncc(Cl)c(Nc2ccccc2S(=O)(=O)C(C)C)n1 [NVP-TAE684] (first compound 0.1 µM, partner dose 0.08 µM), with 92.2%; and `CC(=O)O[C@@]12CO[C@@H]1C[C@H](O)[C@@]1(C)C(=O)[C@H](O)C3=C(C)[C@@H](OC(=O)[C@H](O)[C@@H](NC(=O)OC(C)(C)C)c4ccccc4)C[C@@](O)([C@@H](OC(=O)c4ccccc4)[C@H]21)C3(C)C` [Docetaxel] + CCCCCCCCCCCC1=C(O)C(=O)C=C(O)C1=O [Embelin] (first compound 0.0001 µM, partner dose 1.2 µM), with 45.6%; and `CC(=O)c1c(C)c2cnc(Nc3ccc(N4CCNCC4)cn3)nc2n(C2CCCC2)c1=O` [palbociclib] + O=C(Nc1cccc(Cl)c1)Nc1ncc(CCNc2ncnc3ccsc23)s1 [SNS314] (first compound 0.04 µM, partner dose 0.0008 µM), with 64.8%. For the compound `CC(=O)O[C@@]12CO[C@@H]1C[C@H](O)[C@@]1(C)C(=O)[C@H](O)C3=C(C)[C@@H](OC(=O)[C@H](O)[C@@H](NC(=O)OC(C)(C)C)c4ccccc4)C[C@@](O)([C@@H](OC(=O)c4ccccc4)[C@H]21)C3(C)C` [Docetaxel] + N#Cc1c(O)c2c(-c3ccc(-c4ccccc4O)cc3)csc2[nH]c1=O [A769662] (first compound 0.0001 µM, partner dose 2 µM), the cell count amounted to 53.5%. Take `Nc1ccn([C@@H]2O[C@H](CO)[C@@H](O)C2(F)F)c(=O)n1` [gemcitabine] + CC(C)CCN1c2nc(Nc3cc(F)c(O)c(F)c3)ncc2N(C)C(=O)C1C [BID1870] (first compound 0.0004 µM, partner dose 0.2 µM): the cell count worked out at 63.7%. With `Nc1nc(F)nc2c1ncn2[C@@H]1O[C@H](CO)[C@@H](O)[C@@H]1O` [fludarabine] + N#Cc1c(O)c2c(-c3ccc(-c4ccccc4O)cc3)csc2[nH]c1=O [A769662] (first compound 0.2 µM, partner dose 2 µM), the cell count was 94.8%. `Nc1ccn([C@@H]2O[C@H](CO)[C@@H](O)C2(F)F)c(=O)n1` [gemcitabine] + Cc1cc([N+](=O)[O-])ccc1NS(=O)(=O)c1cc(Cl)ccc1Cl [FH535] (first compound 0.0004 µM, partner dose 1 µM) registered a cell count of 66%. Then `Nc1ccn([C@@H]2O[C@H](CO)[C@@H](O)C2(F)F)c(=O)n1` [gemcitabine] + Cc1cc(N2CCOCC2)cc2[nH]c(-c3c(NC[C@@H](O)c4cccc(Cl)c4)cc[nH]c3=O)nc12 [BMS536924] (first compound 0.0004 µM, partner dose 0.2 µM), with 69.7%.
